{
  "source": "the BET-seq Pho4 binding data (Le et al. 2018)",
  "note": "The list shows a part of the results. These are noisy estimates, calculated here from bound and input reads.",
  "data": [
    {"target": "T1, Pho4 (S. cerevisiae) (UniProt P07270)", "T1 sequence": "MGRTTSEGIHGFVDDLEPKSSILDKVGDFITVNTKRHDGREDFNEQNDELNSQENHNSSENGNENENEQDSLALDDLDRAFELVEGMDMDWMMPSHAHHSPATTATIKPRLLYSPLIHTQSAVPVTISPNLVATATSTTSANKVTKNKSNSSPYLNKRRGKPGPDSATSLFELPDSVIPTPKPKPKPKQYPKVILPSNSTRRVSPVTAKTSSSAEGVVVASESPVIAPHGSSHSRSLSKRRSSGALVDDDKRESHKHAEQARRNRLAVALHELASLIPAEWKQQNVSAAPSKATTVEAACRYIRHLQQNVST", "assay": "relative binding free energy (BET-seq); higher = weaker binding", "details": "reference: library average", "units": {"relative binding free energy": "kcal/mol"}, "values": [
      {"sequence": "ATTAACACGTGTAGGA", "relative binding free energy": 0.14},
      {"sequence": "TATCGCACGTGGTGGA", "relative binding free energy": 0.01},
      {"sequence": "ATTATCACGTGGATTC", "relative binding free energy": 0.23},
      {"sequence": "AATTGCACGTGATTAG", "relative binding free energy": 0.08},
      {"sequence": "TCGGGCACGTGGTGAG", "relative binding free energy": -0.08},
      {"sequence": "ATACACACGTGGTTTG", "relative binding free energy": -0.13},
      {"sequence": "AGGAGCACGTGCCGGG", "relative binding free energy": -0.13},
      {"sequence": "AATTGCACGTGTAGTA", "relative binding free energy": 0.02},
      {"sequence": "AGAGTCACGTGTACGG", "relative binding free energy": 0.04},
      {"sequence": "TAGCGCACGTGAGGTT", "relative binding free energy": 0.07},
      {"sequence": "GGGTGCACGTGTATTC", "relative binding free energy": 0.02},
      {"sequence": "TATTACACGTGATTGA", "relative binding free energy": 0.18},
      {"sequence": "TTCGCCACGTGTGGGG", "relative binding free energy": -0.1},
      {"sequence": "GGATTCACGTGCGTTG", "relative binding free energy": 0.23},
      {"sequence": "TTTGGCACGTGGGCCG", "relative binding free energy": -0.17},
      {"sequence": "TGGGACACGTGGAAGA", "relative binding free energy": 0.04},
      {"sequence": "GGTGTCACGTGGGATT", "relative binding free energy": 0.14},
      {"sequence": "GAGGGCACGTGGGTCA", "relative binding free energy": -0.17},
      {"sequence": "GTCAACACGTGGGTTG", "relative binding free energy": -0.09},
      {"sequence": "AGTAACACGTGGATGT", "relative binding free energy": 0.02},
      {"sequence": "TTGGTCACGTGAGACG", "relative binding free energy": 0.33},
      {"sequence": "TTTATCACGTGAGTTA", "relative binding free energy": 0.33},
      {"sequence": "CAAGGCACGTGGTGGT", "relative binding free energy": -0.2},
      {"sequence": "ATCGACACGTGTCGGG", "relative binding free energy": 0.26},
      {"sequence": "TGAATCACGTGTAGGG", "relative binding free energy": 0.21},
      {"sequence": "CTGGCCACGTGAAGGG", "relative binding free energy": 0.11},
      {"sequence": "GTGAACACGTGGGTCA", "relative binding free energy": -0.13},
      {"sequence": "AGTTACACGTGTGGAG", "relative binding free energy": 0.08},
      {"sequence": "AATGGCACGTGTGCGA", "relative binding free energy": 0.04},
      {"sequence": "TAGGTCACGTGCAGGT", "relative binding free energy": 0},
      {"sequence": "TGGATCACGTGCTCGG", "relative binding free energy": 0.13},
      {"sequence": "AGCTTCACGTGAAGGG", "relative binding free energy": 0.31},
      {"sequence": "TGTAGCACGTGGTGTC", "relative binding free energy": -0.12},
      {"sequence": "GACTACACGTGGGGTT", "relative binding free energy": -0.1},
      {"sequence": "TGTTGCACGTGACTGT", "relative binding free energy": 0.1},
      {"sequence": "AGTTGCACGTGTTAAT", "relative binding free energy": 0.04},
      {"sequence": "GTCGCCACGTGTGAGG", "relative binding free energy": -0.02},
      {"sequence": "TACGACACGTGAGGTG", "relative binding free energy": 0.05},
      {"sequence": "CTGGGCACGTGGGACT", "relative binding free energy": -0.18},
      {"sequence": "TTTAACACGTGGTTAA", "relative binding free energy": -0.15},
      {"sequence": "ATAGACACGTGATGGA", "relative binding free energy": 0.1},
      {"sequence": "GTGAGCACGTGCGTAG", "relative binding free energy": -0.07},
      {"sequence": "GTTTACACGTGGAATA", "relative binding free energy": 0.3},
      {"sequence": "TGGGTCACGTGATTGT", "relative binding free energy": 0.36},
      {"sequence": "TTTTTCACGTGTTTAA", "relative binding free energy": 0.37},
      {"sequence": "GAGGACACGTGTCTGT", "relative binding free energy": 0.13},
      {"sequence": "ATGTGCACGTGTGGAT", "relative binding free energy": 0.08},
      {"sequence": "AAATGCACGTGTTGGG", "relative binding free energy": -0.05},
      {"sequence": "CGGCACACGTGGGTGG", "relative binding free energy": -0.1},
      {"sequence": "GTGTTCACGTGATTAA", "relative binding free energy": 0.31},
      {"sequence": "AGTACCACGTGTGGGG", "relative binding free energy": -0.16},
      {"sequence": "TTAAGCACGTGGAACG", "relative binding free energy": 0.13},
      {"sequence": "GGTGGCACGTGCCGAG", "relative binding free energy": -0.13},
      {"sequence": "AGGATCACGTGGGCCG", "relative binding free energy": 0.12},
      {"sequence": "AAGTGCACGTGCAGTT", "relative binding free energy": -0.12},
      {"sequence": "GTAGGCACGTGGATTT", "relative binding free energy": 0.02},
      {"sequence": "TGGGCCACGTGGGAAG", "relative binding free energy": -0.17}
    ]}
  ]
}
